The other results are listed elsewhere or left out. Single values are uncertain, as repeats are few or missing.
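Also: cells treated in 1,536-well plates, then fixed and DAPI-stained, with nuclei counted from automated high-throughput microscope images.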

This assay concerns LOXIMVI. The assay can be described thus: cell count relative to DMSO control; melanoma cells; higher = more viable cells. As to conditions: library dose: standard library concentration; 72 h.
`Nc1ccn([C@@H]2O[C@H](CO)[C@@H](O)C2(F)F)c(=O)n1` [gemcitabine] + O=C(O)C(=O)Nc1sc2c(c1C(=O)O)CCNC2 [TCS401] (first compound 0.002 µM, partner dose 8.33333 µM) returned a cell count of 74.8%.

Compound `CC(=O)O[C@@]12CO[C@@H]1C[C@H](O)[C@@]1(C)C(=O)[C@H](O)C3=C(C)[C@@H](OC(=O)[C@H](O)[C@@H](NC(=O)OC(C)(C)C)c4ccccc4)C[C@@](O)([C@@H](OC(=O)c4ccccc4)[C@H]21)C3(C)C` [Docetaxel] + C[C@]1(c2nc3c(C(N)=O)cccc3[nH]2)CCCN1 [Veliparib] (first compound 0.0005 µM, partner dose 7 µM) returned a cell count of 53.3%.

As for `CC(=O)c1c(C)c2cnc(Nc3ccc(N4CCNCC4)cn3)nc2n(C2CCCC2)c1=O` [palbociclib] + N#Cc1c(O)c2c(-c3ccc(-c4ccccc4O)cc3)csc2[nH]c1=O [A769662] (first compound 0.2 µM, partner dose 10 µM), the cell count is 67.8%.

Compound `Nc1ccn([C@@H]2O[C@H](CO)[C@@H](O)C2(F)F)c(=O)n1` [gemcitabine] + C=CCNC1=C2C[C@@H](C)C[C@H](OC)[C@H](O)[C@@H](C)/C=C(\C)[C@H](OC(N)=O)[C@@H](OC)/C=C\C=C(/C)C(=O)NC(=CC1=O)C2=O [Tanespimycin] (first compound 0.002 µM, partner dose 0.01 µM) came in with a cell count of 92%.

Turning to `CC(=O)c1c(C)c2cnc(Nc3ccc(N4CCNCC4)cn3)nc2n(C2CCCC2)c1=O` [palbociclib] + O=C(Nc1cccc(Cl)c1)Nc1ncc(CCNc2ncnc3ccsc23)s1 [SNS314] (first compound 0.2 µM, partner dose 0.004 µM), the cell count is 77.8%.

As for `CC(=O)O[C@@]12CO[C@@H]1C[C@H](O)[C@@]1(C)C(=O)[C@H](O)C3=C(C)[C@@H](OC(=O)[C@H](O)[C@@H](NC(=O)OC(C)(C)C)c4ccccc4)C[C@@](O)([C@@H](OC(=O)c4ccccc4)[C@H]21)C3(C)C` [Docetaxel] + c1cc(-c2cnn3cc(-c4ccc(OCCN5CCCCC5)cc4)cnc23)ccn1 [Dorsomorphin] (first compound 0.0005 µM, partner dose 2 µM), the cell count stood at 60%.

Consider `Nc1ncn([C@H]2C[C@H](O)[C@@H](CO)O2)c(=O)n1` [decitabine] + COC(=O)c1sccc1S(=O)(=O)Nc1ccc(Nc2ccccc2)cc1OC [GSK0660] (first compound 0.5 µM, partner dose 5 µM), for which the cell count turned out to be 111%.

In turn, `CO[C@H]1C[C@@H]2CC[C@@H](C)[C@@](O)(O2)C(=O)C(=O)N2CCCC[C@H]2C(=O)O[C@H]([C@H](C)C[C@@H]2CC[C@@H](OCCO)[C@H](OC)C2)CC(=O)[C@H](C)/C=C(\C)[C@@H](O)[C@@H](OC)C(=O)[C@H](C)C[C@H](C)/C=C/C=C/C=C/1C` [everolimus] + Clc1ccc(Nc2nnc(Cc3ccncc3)c3ccccc23)cc1 [vatalanib] (first compound 0.1 µM, partner dose 10 µM) gave a cell count of 38.1%.

`Nc1ccn([C@@H]2O[C@H](CO)[C@@H](O)C2(F)F)c(=O)n1` [gemcitabine] + OCc1c[nH]c2ccccc12 [Indole-3-carbinol] (first compound 0.002 µM, partner dose 4 µM) yielded a cell count of 49.5%.

`Nc1ncn([C@H]2C[C@H](O)[C@@H](CO)O2)c(=O)n1` [decitabine] + O=C(Nc1ccccc1)c1cc([N+](=O)[O-])ccc1Cl [GW9662] (first compound 0.5 µM, partner dose 10 µM) came in with a cell count of 59.6%.

Turning to `Nc1ccn([C@@H]2O[C@H](CO)[C@@H](O)C2(F)F)c(=O)n1` [gemcitabine] + NC(=O)Nc1cc(-c2cccc(F)c2)sc1C(=O)N[C@H]1CCCNC1 [AZD7762] (first compound 0.002 µM, partner dose 0.1 µM), the cell count is 24.1%.

For the compound `Nc1nc(F)nc2c1ncn2[C@@H]1O[C@H](CO)[C@@H](O)[C@@H]1O` [fludarabine] + O=c1cc(-c2cccc3c2Sc2ccccc2S3)oc(N2CCOCC2)c1 [KU55933] (first compound 1 µM, partner dose 5 µM), the cell count stood at 91.4%.

As for `CC(=O)O[C@@]12CO[C@@H]1C[C@H](O)[C@@]1(C)C(=O)[C@H](O)C3=C(C)[C@@H](OC(=O)[C@H](O)[C@@H](NC(=O)OC(C)(C)C)c4ccccc4)C[C@@](O)([C@@H](OC(=O)c4ccccc4)[C@H]21)C3(C)C` [Docetaxel] + CO[C@H]1C[C@@H]2CC[C@@H](C)[C@@](O)(O2)C(=O)C(=O)N2CCCC[C@H]2C(=O)O[C@H]([C@H](C)C[C@@H]2CC[C@@H](OCCO)[C@H](OC)C2)CC(=O)[C@H](C)/C=C(\C)[C@@H](O)[C@@H](OC)C(=O)[C@H](C)C[C@H](C)/C=C/C=C/C=C/1C [everolimus] (first compound 0.0005 µM, partner dose 0.1 µM), the cell count is 44.8%.

`CC(=O)O[C@@]12CO[C@@H]1C[C@H](O)[C@@]1(C)C(=O)[C@H](O)C3=C(C)[C@@H](OC(=O)[C@H](O)[C@@H](NC(=O)OC(C)(C)C)c4ccccc4)C[C@@](O)([C@@H](OC(=O)c4ccccc4)[C@H]21)C3(C)C` [Docetaxel] + O=C(CCCCCCC(=O)Nc1ccccc1)NO [vorinostat] (first compound 0.0005 µM, partner dose 0.4 µM) gave a cell count of 48.2%.

Take `Nc1ccn([C@@H]2O[C@H](CO)[C@@H](O)C2(F)F)c(=O)n1` [gemcitabine] + c1cc(-c2cnn3cc(-c4ccc(OCCN5CCCCC5)cc4)cnc23)ccn1 [Dorsomorphin] (first compound 0.002 µM, partner dose 2 µM): the cell count is 84.5%.

The values above are taken from the supplement of paper PMC4604168 (melanoma cell lines).
